Results from PMC3746198.
No constants are given. Whether binding was seen depends on the method and setting. For some of these results: In cells and extracts the contact can be indirect. Some entries that bind do so weakly or less than the wild type. For some of these results: Where a sequence is shown, tags or fusion partners need not be part of it.

The chains behind the UniProt entries cited, without tags or fusion partners. Where a name states a change or a piece, a line headed by the entry shows the natural chain unless it says otherwise. A line that says so, or that is headed by a name, gives the form on record, which may keep a tag or linker.
UniProt P48432: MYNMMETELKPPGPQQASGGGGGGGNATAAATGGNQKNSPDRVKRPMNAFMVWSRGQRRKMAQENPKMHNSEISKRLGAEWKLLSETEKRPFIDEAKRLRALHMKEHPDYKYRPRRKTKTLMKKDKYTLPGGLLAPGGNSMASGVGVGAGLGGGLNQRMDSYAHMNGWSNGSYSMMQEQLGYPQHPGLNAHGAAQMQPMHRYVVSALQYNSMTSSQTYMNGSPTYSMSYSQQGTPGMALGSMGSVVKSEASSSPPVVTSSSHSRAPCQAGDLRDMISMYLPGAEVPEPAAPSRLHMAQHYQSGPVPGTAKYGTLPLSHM
(Flag)3-Sox2 Δ205–233 (P48432, form named): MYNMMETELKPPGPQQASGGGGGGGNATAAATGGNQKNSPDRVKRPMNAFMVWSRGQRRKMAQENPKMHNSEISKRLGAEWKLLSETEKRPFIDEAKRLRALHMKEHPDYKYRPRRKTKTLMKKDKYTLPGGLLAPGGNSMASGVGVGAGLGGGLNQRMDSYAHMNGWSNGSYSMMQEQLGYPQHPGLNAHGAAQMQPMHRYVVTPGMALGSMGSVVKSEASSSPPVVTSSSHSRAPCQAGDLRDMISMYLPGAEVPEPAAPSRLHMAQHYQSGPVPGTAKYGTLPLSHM
UniProt Q9R190: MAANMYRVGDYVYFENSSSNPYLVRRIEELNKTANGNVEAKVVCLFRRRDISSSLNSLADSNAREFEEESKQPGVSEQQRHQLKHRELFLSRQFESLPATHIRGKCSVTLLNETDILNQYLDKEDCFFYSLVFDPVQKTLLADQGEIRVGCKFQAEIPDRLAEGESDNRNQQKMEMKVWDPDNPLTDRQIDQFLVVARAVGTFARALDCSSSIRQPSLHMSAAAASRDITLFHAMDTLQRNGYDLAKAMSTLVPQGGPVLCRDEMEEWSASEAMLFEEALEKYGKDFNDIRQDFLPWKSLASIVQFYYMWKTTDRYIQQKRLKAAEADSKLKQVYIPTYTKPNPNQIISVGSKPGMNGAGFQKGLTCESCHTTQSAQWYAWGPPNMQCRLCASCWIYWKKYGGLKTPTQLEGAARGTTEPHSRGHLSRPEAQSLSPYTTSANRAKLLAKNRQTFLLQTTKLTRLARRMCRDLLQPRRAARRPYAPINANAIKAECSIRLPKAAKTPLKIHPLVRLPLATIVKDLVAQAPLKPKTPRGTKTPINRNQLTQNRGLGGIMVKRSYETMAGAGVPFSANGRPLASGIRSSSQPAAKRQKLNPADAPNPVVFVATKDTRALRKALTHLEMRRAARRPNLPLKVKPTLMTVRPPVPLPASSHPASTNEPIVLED
UniProt Q8BX22: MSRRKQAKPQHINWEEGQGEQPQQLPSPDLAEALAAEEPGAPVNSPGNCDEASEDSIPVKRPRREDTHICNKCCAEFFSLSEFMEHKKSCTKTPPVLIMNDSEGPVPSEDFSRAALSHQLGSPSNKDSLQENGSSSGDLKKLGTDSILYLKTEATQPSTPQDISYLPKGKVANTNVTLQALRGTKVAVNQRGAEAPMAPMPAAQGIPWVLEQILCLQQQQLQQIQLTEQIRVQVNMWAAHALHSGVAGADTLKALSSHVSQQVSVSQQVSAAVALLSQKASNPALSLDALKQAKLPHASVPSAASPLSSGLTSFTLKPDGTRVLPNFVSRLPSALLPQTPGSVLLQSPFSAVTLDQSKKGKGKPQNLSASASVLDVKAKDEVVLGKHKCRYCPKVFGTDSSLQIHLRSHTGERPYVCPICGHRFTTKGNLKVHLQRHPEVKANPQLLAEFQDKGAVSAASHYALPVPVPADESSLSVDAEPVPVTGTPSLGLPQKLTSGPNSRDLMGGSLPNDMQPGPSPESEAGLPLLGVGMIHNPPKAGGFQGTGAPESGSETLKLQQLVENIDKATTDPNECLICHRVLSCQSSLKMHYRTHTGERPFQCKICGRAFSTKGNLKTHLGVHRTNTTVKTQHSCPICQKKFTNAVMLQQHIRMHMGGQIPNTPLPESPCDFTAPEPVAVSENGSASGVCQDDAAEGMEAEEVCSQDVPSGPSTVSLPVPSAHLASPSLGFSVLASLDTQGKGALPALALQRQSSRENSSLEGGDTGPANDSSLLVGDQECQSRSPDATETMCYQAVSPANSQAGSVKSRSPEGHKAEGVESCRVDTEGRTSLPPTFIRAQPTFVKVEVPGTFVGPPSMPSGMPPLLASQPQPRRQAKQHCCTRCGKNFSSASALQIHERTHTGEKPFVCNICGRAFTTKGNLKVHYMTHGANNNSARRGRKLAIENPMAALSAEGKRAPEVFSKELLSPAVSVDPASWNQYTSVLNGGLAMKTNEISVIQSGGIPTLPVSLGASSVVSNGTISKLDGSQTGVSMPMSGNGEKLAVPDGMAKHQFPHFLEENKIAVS

T1: (HA)3Nanog (UniProt Q80Z64)
T1 sequence: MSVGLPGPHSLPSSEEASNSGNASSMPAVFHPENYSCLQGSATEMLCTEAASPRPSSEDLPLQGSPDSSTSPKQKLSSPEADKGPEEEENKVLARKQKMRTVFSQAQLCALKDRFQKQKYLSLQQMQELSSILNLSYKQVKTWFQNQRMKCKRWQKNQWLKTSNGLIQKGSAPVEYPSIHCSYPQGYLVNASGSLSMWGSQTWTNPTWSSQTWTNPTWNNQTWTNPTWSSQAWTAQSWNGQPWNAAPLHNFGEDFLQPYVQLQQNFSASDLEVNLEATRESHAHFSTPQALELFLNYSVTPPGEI

T2: (His)6-tagged Nanog (UniProt Q80Z64)
T2 sequence: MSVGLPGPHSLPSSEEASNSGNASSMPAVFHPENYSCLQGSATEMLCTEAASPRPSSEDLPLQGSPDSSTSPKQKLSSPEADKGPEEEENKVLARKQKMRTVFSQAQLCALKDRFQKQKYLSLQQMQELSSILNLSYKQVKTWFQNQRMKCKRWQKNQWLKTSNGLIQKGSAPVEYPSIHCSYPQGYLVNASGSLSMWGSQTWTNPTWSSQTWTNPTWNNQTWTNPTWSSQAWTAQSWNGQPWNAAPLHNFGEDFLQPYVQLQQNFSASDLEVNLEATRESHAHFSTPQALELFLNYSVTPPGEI

T3: Nanog (endogenous) (mouse (endogenous in E14Tg2a ES cells)) (UniProt Q80Z64)
T3 sequence: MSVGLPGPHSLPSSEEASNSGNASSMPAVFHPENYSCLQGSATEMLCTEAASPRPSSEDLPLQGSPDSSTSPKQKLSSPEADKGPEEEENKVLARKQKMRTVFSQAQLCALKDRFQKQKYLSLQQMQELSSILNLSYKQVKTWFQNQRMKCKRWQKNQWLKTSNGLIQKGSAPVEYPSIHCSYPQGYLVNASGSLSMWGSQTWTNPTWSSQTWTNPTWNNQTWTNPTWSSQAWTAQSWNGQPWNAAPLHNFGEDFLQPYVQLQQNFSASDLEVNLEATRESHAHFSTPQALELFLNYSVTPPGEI

T4: (FLAG)3Nanog (UniProt Q80Z64)
T4 sequence: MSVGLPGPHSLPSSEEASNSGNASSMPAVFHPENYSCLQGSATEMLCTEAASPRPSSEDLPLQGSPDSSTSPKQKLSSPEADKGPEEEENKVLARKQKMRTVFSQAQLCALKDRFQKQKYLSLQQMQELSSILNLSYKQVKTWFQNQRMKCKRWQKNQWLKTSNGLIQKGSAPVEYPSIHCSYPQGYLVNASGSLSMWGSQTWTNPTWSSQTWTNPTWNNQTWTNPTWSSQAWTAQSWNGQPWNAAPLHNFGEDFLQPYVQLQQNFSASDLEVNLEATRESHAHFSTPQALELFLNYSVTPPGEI


Legend:
(HA)3Nanog = target: T1, (HA)3Nanog; assay: co-IP; E14/T cells co-transfected with (HA)3-Nanog or mutants and (Flag)3Sox2 or mutants; nuclear extract (treated with benzonase); HA antibody 4°C 3 h, Protein G; immunoblot with anti-FLAG
(His)6-tagged Nanog [1] = target: T2, (His)6-tagged Nanog; assay: co-purification on ion exchange; the Nanog/Sox2 eluate of the nickel resin (proteins co-expressed in E. coli) on a CM Sepharose FF column at pH 7.6, gradient 0–1 M NaCl; Coomassie gel of fractions
(His)6-tagged Nanog [2] = target: T2, (His)6-tagged Nanog; assay: pull-down; (His)6-Nanog and unmodified Sox2 co-expressed in E. coli BL21(DE3) (pET Duet); lysate in 25 mM Hepes pH 7.6, 1 M NaCl, 5 mM imidazole on nickel resin, eluted with imidazole; Coomassie gel, immunoblot and N-terminal sequencing
[3] = target: T3, Nanog (endogenous) (mouse (endogenous in E14Tg2a ES cells)); assay: co-IP; endogenous proteins, E14Tg2a nuclear extract; immunoprecipitation with anti-Sox2 or with anti-Nanog antibody, immunoblot for the other protein
(FLAG)3Nanog = target: T4, (FLAG)3Nanog; assay: co-IP; nuclear extract of E14Tg2a F-Nanog cells with Flag antibody and Protein G (mouse IgG control), or of RCNβH-B(t):F-Nanog cells with FLAG agarose (parental cells as control); 4°C, 3 h; washed in 20 mM Hepes pH 7.6, 100 mM KCl, 0.2% NP-40; immunoblot
[4] = target: Sox2 (endogenous) (mouse (endogenous in E14Tg2a ES cells)) (UniProt P48432); assay: co-IP; endogenous proteins, E14Tg2a nuclear extract; immunoprecipitation with anti-Sox2 or with anti-Nanog antibody, immunoblot for the other protein

Row | Molecule | binding ((HA)3Nanog) | other results
1 | (Flag)3-Sox2 1-233 (from UniProt P48432 1-233) (domain or fragment) | binds | –
2 | (Flag)3-Sox2 1-263 (from UniProt P48432 1-263) (domain or fragment) | binds | –
3 | unmodified Sox2 (expressed in E. coli) (from UniProt P48432 1-319) | – | binding ((His)6-tagged Nanog [1]): binds; binding ((His)6-tagged Nanog [2]): binds
4 | Sox2 (endogenous) (from UniProt P48432 1-319) | – | binding [3]: binds; binding ((FLAG)3Nanog): binds
5 | (Flag)3Sox2 (from UniProt P48432 1-319) | binds | –
6 | NuRD subunit Mta2 (from UniProt Q9R190 1-668) | – | binding ((FLAG)3Nanog): binds
7 | (Flag)3-Sox2 ΔN120 (from UniProt P48432 121-319) (domain or fragment) | binds | –
8 | Sall4 (from UniProt Q8BX22 1-1067) | – | binding ((FLAG)3Nanog): binds
9 | (Flag)3-Sox2 1-218 (from UniProt P48432 1-218) (domain or fragment) | binds | –
10 | (Flag)3-Sox2 1-212 (from UniProt P48432 1-212) (domain or fragment) | no binding | –
11 | Nanog (endogenous) (protein, UniProt Q80Z64 1-305) MSVGLPGPHSLPSSEEASNSGNASSMPAVFHPENYSCLQGSATEMLCTEAASPRPSSEDLPLQGSPDSSTSPKQKLSSPEADKGPEEEENKVLARKQKMRTVFSQAQLCALKDRFQKQKYLSLQQMQELSSILNLSYKQVKTWFQNQRMKCKRWQKNQWLKTSNGLIQKGSAPVEYPSIHCSYPQGYLVNASGSLSMWGSQTWTNPTWSSQTWTNPTWNNQTWTNPTWSSQAWTAQSWNGQPWNAAPLHNFGEDFLQPYVQLQQNFSASDLEVNLEATRESHAHFSTPQALELFLNYSVTPPGEI | – | binding [4]: binds

Now from value to molecule, other results behind:

Row | binding ((HA)3Nanog) | Molecule | other results
12 | no binding | (Flag)3-Sox2 Δ205–233 (from UniProt P48432 1-319) | –
13 | binds | (Flag)3-Sox2 1-226 (from UniProt P48432 1-226) (domain or fragment) | –
14 | no binding | (Flag)3-Sox2 1-204 (from UniProt P48432 1-204) (domain or fragment) | –
